# Laboratory results reported in PubChem BioAssay AID624417 (National Center for Advancing Translational Sciences (NCATS), 2012).
# Screen size: about 410,000 compounds; about 6,400 (1.6%) were called active. The inconclusive results got no clear call from the source; some entries with a clear call stand among them for comparison. Calls come from the whole dose curve; as a rule, active = well fitted inhibition curve with a large enough effect; inconclusive = small, poorly fitted or top-dose-only effect; inactive = no such curve, though single readings can be large or run the other way. Potencies of inconclusive entries are left out as doubtful fits.
# Biological target: Glucagon-like peptide 1 receptor (Homo sapiens) (UniProt P43220)
# Chain of UniProt P43220 (P43220 whole entry, looked up): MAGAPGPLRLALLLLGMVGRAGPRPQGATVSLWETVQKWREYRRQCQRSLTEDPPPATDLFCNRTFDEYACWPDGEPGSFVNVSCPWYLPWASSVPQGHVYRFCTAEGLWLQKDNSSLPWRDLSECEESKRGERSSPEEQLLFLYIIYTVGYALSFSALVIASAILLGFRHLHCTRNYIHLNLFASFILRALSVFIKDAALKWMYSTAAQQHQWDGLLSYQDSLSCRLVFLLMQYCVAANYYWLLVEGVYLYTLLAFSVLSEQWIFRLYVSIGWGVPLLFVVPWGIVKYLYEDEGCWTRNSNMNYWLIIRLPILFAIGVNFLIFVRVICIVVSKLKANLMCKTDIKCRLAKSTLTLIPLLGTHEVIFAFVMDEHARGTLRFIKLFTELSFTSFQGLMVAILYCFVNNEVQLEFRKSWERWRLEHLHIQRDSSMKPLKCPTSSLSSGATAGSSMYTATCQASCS
# Assay: qHTS of GLP-1 Receptor Inverse Agonists (Inhibition Mode); note: nearly all actives have a fitted effect of over 55% in size
# Conditions: HEK293 GLP-1R CRE-luciferase, luminescence, 24 h, GLP-1R form is constitutively active; series mostly up to 38.3 µM
# Outline: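 Using stably transfected HEK293 (constitutively active GLP-1R, cAMP-luciferase reporter), compounds were incubated 24 hr and luciferase measured by luminescence.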
# Potency is the fitted concentration of half-maximal effect; tags give direction and shape of the fitted curve.
row,Compound,Potency
1,CCCCNC(=S)N(C)/N=C/c1ccc2c(c1)OCO2,"inconclusive [inhibitor, single point]"
2,Clc1ccccc1CSc1nnc(/C=C/c2ccccc2)o1,"inconclusive [inhibitor, partial curve, poor fit]"
3,Cc1cccc(Cn2c(SCc3ccc(C(=O)NCc4cccs4)cc3)nc3ccncc32)c1,"inconclusive [inhibitor, partial curve, poor fit]"
4,O=C(CSc1ccccc1)NC(=O)NCc1ccccc1,"inconclusive [inhibitor, single point]"
5,Cc1ccc(N2C(=O)CC(N3CCN(C4CCc5ccccc5C4)CC3)C2=O)cc1 (configuration not stated),inactive
6,Cc1cc2ccccn2c1C(=O)c1ccc(F)cc1,"inconclusive [inhibitor, partial curve, poor fit]"
7,COc1ccc(N(C(=O)c2cc(OC)c(OC)c(OC)c2)S(=O)(=O)c2ccc(C)cc2)cc1,"inconclusive [inhibitor, single point]"
8,O=C(Cc1ccc(S(=O)(=O)N2CCOCC2)s1)N1CCN(c2ccc(C(F)(F)F)cc2[N+](=O)[O-])CC1,"inconclusive [inhibitor, single point]"
9,COc1ccc(/C=N\NC(=O)COc2ccc(C(C)(C)C)cc2)cc1Cn1nc(C)cc1C,"inconclusive [inhibitor, partial curve, poor fit]"
10,Nn1c(C2CCC2)nc2ccccc2c1=O,inactive
11,Cn1cc(-c2cc3n(n2)CCC(=O)N3CC(=O)NCc2ccccc2)c2ccccc21,inactive
12,NC(=O)NCC(c1ccccc1)C1CCCCC1 (configuration not stated),inactive
13,O=C1OC(N2C(=O)CC[C@H]2C(=O)Nc2ccc(Br)cc2F)c2ccccc21 (some centres not stated),inactive
14,Cc1cc(C)c(NC(=O)CNC(=O)CN(C)Cc2ccc(Br)s2)c(C)c1,active: 6.31 µM
15,COc1ccccc1NC(=O)c1ccccc1Oc1ccccc1,"inconclusive [inhibitor, partial curve, poor fit]"
16,CCN1C/C(=C/c2cccc([N+](=O)[O-])c2)C(=O)/C(=C/c2cccc([N+](=O)[O-])c2)C1,"inconclusive [inhibitor, partial curve, poor fit]"
17,COc1ccc(Cl)cc1NC(=O)c1c(NCc2cccs2)sc2c1CCC(C)C2 (configuration not stated),"inconclusive [inhibitor, single point]"
18,O=C(C[C@@H]1C/C=C\C[C@H](Cc2ccc(F)cc2)C(=O)OC[C@H]2CCCN2C1=O)NCCO,inactive
19,O=C(c1cccc(S(=O)(=O)N2CCOCC2)c1)N1CCC(Cc2ccccc2)CC1,"inconclusive [inhibitor, partial curve, poor fit]"
20,Cc1[nH]c2ccccc2c1SCCNC(=O)c1ccc(F)cc1,"inconclusive [inhibitor, partial curve, poor fit]"
21,Cc1nc2ccc(NC(=O)c3ccc(Cl)c(S(=O)(=O)N(C)c4ccccc4)c3)cc2s1,active: 1.78 µM

row,Compound,Potency
1,CCCCNC(=O)C(C)N(CCN(C)C)C(=O)CCCCCN1C(=O)NC(c2ccc(Cl)cc2)C(C(=O)OCc2ccccc2)=C1C (configuration not stated),"inconclusive [inhibitor, single point]"
2,CC(C)c1ccc(NC(=O)CSC2=Nc3ccccc3C3=NC(CC(=O)NCCc4ccccc4)C(=O)N23)cc1 (configuration not stated),"inconclusive [inhibitor, single point]"
3,Cc1ccc(NC(=O)C(C)c2ccc(-c3ccccc3)c(F)c2)cc1 (configuration not stated),"inconclusive [inhibitor, partial curve]"
4,COc1ccc(NS(=O)(=O)c2cc(NC(=O)c3ccccc3F)ccc2N2CCCC2)cc1,"inconclusive [inhibitor, partial curve, poor fit]"
5,Cc1cc(C)c(NC(=O)/C(C#N)=C/c2ccc(OCc3ccc(F)cc3)cc2)c(C)c1,"inconclusive [inhibitor, full curve]"
6,CCCCn1c(=O)[nH]c(=O)c2c1nc(Cn1ncc(Cl)c(Cl)c1=O)n2CCC,"inconclusive [inhibitor, single point]"
7,Cc1ccc(-n2[nH]c(C)c(/C=N/NC(=O)c3ccc(O)cc3O)c2=O)cc1,"inconclusive [inhibitor, single point]"
8,CCC(=O)Nc1cccc(C(=O)N(Cc2ccccc2)Cc2ccccc2)c1,"inconclusive [inhibitor, partial curve, poor fit]"
9,c1ccc(-c2ccccc2OCCCN2CCCCCC2)cc1,"inconclusive [inhibitor, partial curve, poor fit]"
10,CC1(C)O[C@@H]2C[C@H]3[C@@H]4CCC5=CC(=O)CC[C@]5(C)[C@@]4(F)[C@@H](O)C[C@]3(C)[C@]2(C(=O)CCl)O1,"inconclusive [inhibitor, partial curve, poor fit]"
11,COc1ccc(N2CCN(C3CCCCC3NS(=O)(=O)c3ccc(Cl)cc3)CC2)cc1 (configuration not stated),"inconclusive [inhibitor, partial curve, poor fit]"
12,COc1ccccc1-c1sc2ccccc2c1-c1ccc2c(c1)OCCO2,inactive
13,CCN1CCN(C(=O)C2CCC(CNS(=O)(=O)c3ccccc3)CC2)CC1 (configuration not stated),"inconclusive [inhibitor, partial curve, poor fit]"
14,Cn1c(=O)n(-c2ccc(Br)cc2F)c(=O)c2sc3ccccc3c21,inactive
15,Cc1ccc(Cn2nc(C)c(C(=O)N3CCN(S(=O)(=O)/C=C/c4ccccc4)CC3)c2C)cc1,"inconclusive [inhibitor, partial curve, poor fit]"
16,C/C(CC(=O)Nc1ccc(Cl)c(C(F)(F)F)c1)=N\NC(N)=S,active: 10 µM
17,CC(C)c1ccc2[nH]c3c(c2c1)CCC/C3=N\NC(=O)c1ccncc1,"inconclusive [inhibitor, partial curve, poor fit]"
18,CCOC(=O)c1cccc(NC(=O)C2(S(=O)(=O)c3ccc(Cl)cc3)CC2)c1,"inconclusive [inhibitor, single point]"
19,CCCN1C(C(=O)c2ccccc2)=C(OC(=O)COc2ccccc2)c2ccccc2S1(=O)=O,"inconclusive [inhibitor, partial curve, poor fit]"
20,O=C(CSc1cccc[n+]1[O-])c1cc(Cl)ccc1Cl,"inconclusive [inhibitor, full curve, poor fit]"
21,CCOC(=O)c1ccc(CN(Cc2ccc(F)cc2)S(=O)(=O)c2cc(C(=O)Nc3cccc(C(F)(F)F)c3)ccc2F)cc1,"inconclusive [inhibitor, full curve]"

row,Compound,Potency
1,CC1(c2nc3ccccc3cc2C#N)OCCO1,inactive
2,O=C(Nc1ccccc1)C(c1ccccc1)C1CCCC1 (configuration not stated),"inconclusive [inhibitor, partial curve, poor fit]"
3,CCOc1ccc(NC(=O)CN2C(=O)C(c3ccccc3)=NC23CCC(C)CC3)cc1 (configuration not stated),"inconclusive [inhibitor, partial curve, poor fit]"
4,Cc1cccc(N2CCN(S(=O)(=O)c3ccc4c(c3)CCCN4C(=O)C3CCC3)CC2C)c1 (configuration not stated),"inconclusive [inhibitor, full curve]"
5,Cc1ccc(Cl)cc1NC(=O)C(C)n1nnc2sc3c(c2c1=O)CCCC3 (configuration not stated),inactive
6,CCOC(=O)c1nn(-c2ccc(C)c(C)c2)c(=O)c2c(N)scc12,"inconclusive [inhibitor, partial curve, poor fit]"
7,COc1ccc(-n2cc(CNCCc3ncc(C)[nH]3)c(-c3ccccc3Cl)n2)cc1,"inconclusive [inhibitor, single point]"
8,Cc1ccc2c(c1)COc1c3ccc(C(=O)NCCO)cc3nn1-2,inactive
9,CCC(CC)NC(=O)c1oc2ccccc2c1COc1ccccc1,"inconclusive [inhibitor, partial curve, poor fit]"
10,Clc1ccc2c(c1)-c1[nH]ncc1CS2,"inconclusive [inhibitor, single point]"
11,Cc1cccc(OCC(=O)NCc2nc(-c3ccccc3)no2)c1,"inconclusive [inhibitor, partial curve, poor fit]"
12,Nn1cnc2scc(-c3cccs3)c2c1=O,inactive
13,CC(C)COc1cccc(C(=O)Nc2ccc(-c3nc4ncccc4o3)cc2)c1,inactive
14,CCC(C(=O)Nc1cccc(Cl)c1C)n1nc(-c2ccc(C)cc2)ccc1=O (configuration not stated),"inconclusive [inhibitor, single point]"
15,CCCc1ccc2oc(C(=O)N3CCC(N4CCCC(O)C4)CC3)c(C)c2c1 (configuration not stated),"inconclusive [inhibitor, single point]"
16,CCN(CC)CCNC(=O)c1cc2c(s1)-c1ccccc1SC2,"inconclusive [inhibitor, full curve, poor fit]"
17,COc1cccc(-n2nc(C(C)=O)c(=O)[nH]c2=O)c1,"inconclusive [inhibitor, single point]"
18,O=C(C(c1ccccc1)c1ccccc1)N1CCN(CC(O)COc2ccccc2)CC1 (configuration not stated),"inconclusive [inhibitor, single point]"
19,CCN(CC1COc2ccccc2O1)C(=O)CN1C(=O)NC(C)(c2ccccc2)C1=O (configuration not stated),"inconclusive [inhibitor, partial curve, poor fit]"
20,COc1ccc(NC(=O)c2cc(CC(C)C)nc3ccccc23)cc1,"inconclusive [inhibitor, partial curve]"
